{"source": "paper PMC4336329", "about": "(PLoS ONE, 2015)", "note": "The whole screen tested about 310,000 compounds, of which about 14,000 (4.5%) showed an effect of 50% or more. Effects have a minus sign here. The list shows a part of the results.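 Note: peak tail current of the secondary pulse compared with the same well before compound.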", "data": [{"target": "human ether-à-go-go-related gene (hERG) potassium channel (human, UniProt Q12809)", "sequence (Q12809 whole entry, looked up)": "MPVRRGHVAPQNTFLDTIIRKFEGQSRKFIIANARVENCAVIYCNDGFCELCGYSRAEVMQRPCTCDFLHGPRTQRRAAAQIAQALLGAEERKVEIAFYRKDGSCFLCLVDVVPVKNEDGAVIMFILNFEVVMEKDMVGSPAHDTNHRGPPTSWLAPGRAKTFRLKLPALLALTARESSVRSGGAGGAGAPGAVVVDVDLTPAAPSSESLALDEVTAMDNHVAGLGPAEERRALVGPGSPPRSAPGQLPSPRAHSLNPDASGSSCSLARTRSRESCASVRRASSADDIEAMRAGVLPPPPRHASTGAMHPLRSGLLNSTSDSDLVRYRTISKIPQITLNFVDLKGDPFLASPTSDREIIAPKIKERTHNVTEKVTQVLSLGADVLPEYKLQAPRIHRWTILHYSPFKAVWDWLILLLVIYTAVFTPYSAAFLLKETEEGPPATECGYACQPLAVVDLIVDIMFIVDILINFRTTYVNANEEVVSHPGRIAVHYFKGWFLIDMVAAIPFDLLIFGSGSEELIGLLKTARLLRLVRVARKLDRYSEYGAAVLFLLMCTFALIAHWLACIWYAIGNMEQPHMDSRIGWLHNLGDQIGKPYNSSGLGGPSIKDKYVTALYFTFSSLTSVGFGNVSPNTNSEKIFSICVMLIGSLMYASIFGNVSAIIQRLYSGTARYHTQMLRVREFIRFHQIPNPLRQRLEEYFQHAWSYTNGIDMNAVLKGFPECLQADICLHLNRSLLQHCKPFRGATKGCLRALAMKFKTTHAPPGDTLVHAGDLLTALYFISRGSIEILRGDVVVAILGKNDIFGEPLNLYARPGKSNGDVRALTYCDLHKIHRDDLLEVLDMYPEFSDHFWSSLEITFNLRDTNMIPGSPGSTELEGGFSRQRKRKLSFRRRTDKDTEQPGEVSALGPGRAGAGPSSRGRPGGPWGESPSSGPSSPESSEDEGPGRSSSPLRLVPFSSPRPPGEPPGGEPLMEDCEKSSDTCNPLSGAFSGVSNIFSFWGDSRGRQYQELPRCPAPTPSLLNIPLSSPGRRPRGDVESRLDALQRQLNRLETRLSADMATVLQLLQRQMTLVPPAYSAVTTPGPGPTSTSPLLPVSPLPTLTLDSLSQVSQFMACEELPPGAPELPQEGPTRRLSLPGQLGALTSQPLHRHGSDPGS", "assay": "primary screen, population patch clamp on CHO cells stably expressing hERG", "units": {"hERG current change (%, negative = inhibition) at 10uM": "%"}, "values": [{"smiles": "COCCCNC(=O)C1CCCN(C(=O)Nc2ccc(OC)cc2)C1", "note": "(centres unmarked)", "hERG current change (%, negative = inhibition) at 10uM": -14.1}, {"smiles": "COc1cc(CN(C)CC(=O)c2[nH]c(C)c(C(C)=O)c2C)ccc1OC(F)F", "hERG current change (%, negative = inhibition) at 10uM": -47.6}, {"smiles": "CN(Cc1ccc(Cl)cc1)C(=O)c1ccc2ccccc2n1", "hERG current change (%, negative = inhibition) at 10uM": -30.8}, {"smiles": "O=C1CCN(Cc2ccccc2)CCN1[C@H](COc1ccccc1)c1ccccc1", "hERG current change (%, negative = inhibition) at 10uM": -57.9}, {"smiles": "CN1CCN(C2=Nc3cc(F)ccc3Cc3ccccc32)CC1", "hERG current change (%, negative = inhibition) at 10uM": -35.7}, {"smiles": "CCc1ccc(S(=O)(=O)NCc2csc(-c3cccnc3)n2)s1", "hERG current change (%, negative = inhibition) at 10uM": -12.4}, {"smiles": "CC1CN(C2CCN(S(=O)(=O)c3ccccc3)CC2)CC(C)O1", "note": "(centres unmarked)", "hERG current change (%, negative = inhibition) at 10uM": -3.76}, {"smiles": "O=C(OCC(=O)N1CCCCC1)c1ccc2c(c1)C(=O)N(Cc1ccco1)C2=O", "hERG current change (%, negative = inhibition) at 10uM": -28}, {"smiles": "CC(=O)Oc1oc(-c2ccccc2)nc1C=Nc1ccccc1", "hERG current change (%, negative = inhibition) at 10uM": 9.9}, {"smiles": "O=C(COc1ccc(S(=O)(=O)N2CCOCC2)cc1)N1CCN(c2ccccc2)CC1", "hERG current change (%, negative = inhibition) at 10uM": -15.9}, {"smiles": "CC(=O)Nc1ccc(SCC(=O)N(CCC#N)c2ccc(C)cc2)cc1", "hERG current change (%, negative = inhibition) at 10uM": -24.1}, {"smiles": "Cc1ccc(S(=O)(=O)CCC(=O)OCC(=O)NC(=O)c2ccccc2)cc1", "hERG current change (%, negative = inhibition) at 10uM": 14.3}, {"smiles": "COc1ccccc1N1CCN(C(c2ccccc2Cl)c2nnnn2C(C)(C)C)CC1.Cl", "note": "(centres unmarked)", "hERG current change (%, negative = inhibition) at 10uM": 6.69}, {"smiles": "CCCN(CCC)Cc1c(C(=O)N/N=C/c2cccs2)nnn1-c1nonc1N", "hERG current change (%, negative = inhibition) at 10uM": -12.8}, {"smiles": "CSc1ccc(/C=N/NC(=O)CN2CCN(Cc3ccccc3)CC2)cc1", "hERG current change (%, negative = inhibition) at 10uM": -74.6}, {"smiles": "CCOc1ccc(S(=O)(=O)NCCC(=O)NCC(c2ccco2)N2CCCCC2)cc1", "note": "(centres unmarked)", "hERG current change (%, negative = inhibition) at 10uM": -17.7}, {"smiles": "Cn1cc(Br)c(C(=O)NC2CCCCC2)n1", "hERG current change (%, negative = inhibition) at 10uM": -2.74}, {"smiles": "COc1cccc2cc(-c3nnc(SCC(=O)Nc4cc(C(F)(F)F)ccc4Cl)n3N)oc12", "hERG current change (%, negative = inhibition) at 10uM": 8.83}, {"smiles": "O=C(c1ccc(=O)[nH]c1)N1CCN(S(=O)(=O)c2ccccc2)CC1", "hERG current change (%, negative = inhibition) at 10uM": 2.97}, {"smiles": "CC(C)n1nc(C(=O)Nc2ccccc2N2CCOCC2)c2ccccc2c1=O", "hERG current change (%, negative = inhibition) at 10uM": -7.57}, {"smiles": "C/C(=N\\NC(=O)CN(c1ccccc1)S(C)(=O)=O)c1ccccc1O", "hERG current change (%, negative = inhibition) at 10uM": 2.75}, {"smiles": "N#CCCn1cc(C(=O)O)c(-c2cc3ccccc3o2)n1", "hERG current change (%, negative = inhibition) at 10uM": 24.6}, {"smiles": "Cn1c(CSc2nc3ccccc3s2)n[nH]c1=S", "hERG current change (%, negative = inhibition) at 10uM": 11.3}, {"smiles": "COc1ccc(C2(CNC(=O)c3ccccc3)CCCC2)cc1OC", "hERG current change (%, negative = inhibition) at 10uM": -7.95}, {"smiles": "Cc1cccc(C)c1NC(=S)Nc1c(C)n(C)n(-c2ccccc2)c1=O", "hERG current change (%, negative = inhibition) at 10uM": -1.97}, {"smiles": "O=C(NC(=O)c1ccccc1F)Nc1nc(-c2cccs2)cc(C(F)(F)F)n1", "hERG current change (%, negative = inhibition) at 10uM": 4.49}, {"smiles": "CCC(C)c1ccc(OCC(=O)Nc2ccc3c(c2)C(=O)NC3=O)cc1", "note": "(centres unmarked)", "hERG current change (%, negative = inhibition) at 10uM": 13.8}, {"smiles": "COc1cc(/C=N/NC(=O)c2cccnc2)ccc1OC(=O)c1ccc([N+](=O)[O-])cc1", "hERG current change (%, negative = inhibition) at 10uM": 10.9}, {"smiles": "CN(C)S(=O)(=O)c1ccc(C(=O)OCCCN=C2NS(=O)(=O)c3ccccc32)cc1", "hERG current change (%, negative = inhibition) at 10uM": -7.5}, {"smiles": "O=C(c1cccc(S(=O)(=O)Nc2cccc(C(F)(F)F)c2)c1)N1CCOCC1", "hERG current change (%, negative = inhibition) at 10uM": -7.37}, {"smiles": "CCOC(=O)c1cc(-c2ccccc2)sc1NC(=O)COC(=O)c1ccc(Cl)c(S(N)(=O)=O)c1", "hERG current change (%, negative = inhibition) at 10uM": 7.47}, {"smiles": "CCCCN(CCCNC(=O)CN1C(=O)COc2ccccc21)c1ccccc1", "hERG current change (%, negative = inhibition) at 10uM": -26}, {"smiles": "Cc1cc(C)cc(NS(=O)(=O)c2csc(C(N)=O)c2)c1", "hERG current change (%, negative = inhibition) at 10uM": 17.3}, {"smiles": "Nc1cccc(-c2nc3ccccc3[nH]2)c1", "hERG current change (%, negative = inhibition) at 10uM": 4.39}, {"smiles": "COc1ccccc1N1CCN(S(=O)(=O)CCNC(=O)c2ccccc2Br)CC1", "hERG current change (%, negative = inhibition) at 10uM": 3.17}, {"smiles": "C/C(=N\\NC(=O)c1cc2ccccc2cc1O)c1ccc(C)o1", "hERG current change (%, negative = inhibition) at 10uM": 9.05}, {"smiles": "O=C(c1cccs1)N1CCCc2ccccc21", "hERG current change (%, negative = inhibition) at 10uM": -14.4}, {"smiles": "CCn1c(=O)n(CC)c2cc(S(=O)(=O)Nc3ccccc3C)c(C)cc21", "hERG current change (%, negative = inhibition) at 10uM": -11}, {"smiles": "COc1ccc(-c2nc(CCl)cs2)cc1.Cl", "hERG current change (%, negative = inhibition) at 10uM": 21.8}, {"smiles": "COc1ccccc1/C=C/C(=O)Nc1ccc(S(=O)(=O)Nc2cc(C)nc(C)n2)cc1", "hERG current change (%, negative = inhibition) at 10uM": 8.24}, {"smiles": "CCOc1ccc2nc(N3CCC(C(=O)N4CCN(c5ncccn5)CC4)CC3)sc2c1", "hERG current change (%, negative = inhibition) at 10uM": -13.4}, {"smiles": "O=C(CSCc1ccc(Cl)c(Cl)c1)Nc1c[nH]c(=O)[nH]c1=O", "hERG current change (%, negative = inhibition) at 10uM": 24.7}, {"smiles": "COc1ccc(C2C(C(N)=O)=C(C)Nc3nc(-c4cccc(Cl)c4)nn32)cc1OC", "note": "(centres unmarked)", "hERG current change (%, negative = inhibition) at 10uM": 8.81}, {"smiles": "COc1ccc(C2=CC(c3cccc(OC)c3)n3nnnc3N2)cc1", "note": "(centres unmarked)", "hERG current change (%, negative = inhibition) at 10uM": 8.61}]}]}
